The values that follow come from PMC6265451.

The chains behind the UniProt entries cited, without tags or fusion partners.
UniProt P29468: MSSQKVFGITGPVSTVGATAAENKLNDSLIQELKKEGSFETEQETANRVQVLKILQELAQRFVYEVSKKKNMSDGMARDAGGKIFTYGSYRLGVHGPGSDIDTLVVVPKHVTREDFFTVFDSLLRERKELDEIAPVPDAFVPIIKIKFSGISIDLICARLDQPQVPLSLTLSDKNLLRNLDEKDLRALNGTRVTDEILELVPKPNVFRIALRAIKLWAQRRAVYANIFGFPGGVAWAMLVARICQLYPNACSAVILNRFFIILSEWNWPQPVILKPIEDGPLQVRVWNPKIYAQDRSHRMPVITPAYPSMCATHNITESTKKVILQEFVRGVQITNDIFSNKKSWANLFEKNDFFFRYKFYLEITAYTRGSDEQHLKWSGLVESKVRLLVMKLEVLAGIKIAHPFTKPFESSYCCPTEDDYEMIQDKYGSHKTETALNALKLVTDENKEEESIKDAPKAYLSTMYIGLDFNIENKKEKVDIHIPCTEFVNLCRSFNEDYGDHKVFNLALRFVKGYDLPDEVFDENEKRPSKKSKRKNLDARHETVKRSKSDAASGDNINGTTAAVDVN

Results are given in words; binding and its absence hold for the method and conditions named. Some entries that bind do so weakly or less than the wild type.

The target of experiment [1] is T1, Pta1-TAPS (S. cerevisiae) (UniProt Q01329).
T1 sequence: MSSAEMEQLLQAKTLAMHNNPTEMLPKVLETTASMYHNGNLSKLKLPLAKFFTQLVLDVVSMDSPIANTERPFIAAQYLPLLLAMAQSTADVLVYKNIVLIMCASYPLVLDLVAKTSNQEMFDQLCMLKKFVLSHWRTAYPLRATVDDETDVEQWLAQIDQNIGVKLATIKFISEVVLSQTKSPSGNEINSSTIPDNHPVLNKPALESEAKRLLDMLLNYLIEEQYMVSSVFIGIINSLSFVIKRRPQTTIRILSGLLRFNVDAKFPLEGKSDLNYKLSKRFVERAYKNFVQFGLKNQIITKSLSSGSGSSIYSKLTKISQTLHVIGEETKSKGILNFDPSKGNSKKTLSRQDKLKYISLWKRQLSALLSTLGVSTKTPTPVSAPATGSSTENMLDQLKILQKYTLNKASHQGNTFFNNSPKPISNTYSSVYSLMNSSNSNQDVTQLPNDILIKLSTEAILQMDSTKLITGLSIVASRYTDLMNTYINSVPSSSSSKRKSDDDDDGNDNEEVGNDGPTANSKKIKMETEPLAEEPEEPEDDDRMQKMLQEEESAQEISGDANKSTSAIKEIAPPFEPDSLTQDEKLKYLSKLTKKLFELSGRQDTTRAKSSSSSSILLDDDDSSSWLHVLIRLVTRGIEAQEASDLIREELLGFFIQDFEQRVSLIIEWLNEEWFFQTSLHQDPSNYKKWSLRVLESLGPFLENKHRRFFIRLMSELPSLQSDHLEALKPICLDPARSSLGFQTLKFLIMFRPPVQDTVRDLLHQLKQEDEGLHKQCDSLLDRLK
In words: anion exchange chromatography; TAPS affinity purification from tagged yeast strain (Ref2-tagged; Pta1-tagged with SYC1 deleted), then Mono Q 5/50 GL in 20 mM HEPES pH 7.9, 150 mM KCl, 3 mM DTT, 0.5 mM Mg(OAc)2; APT eluted at 260 mM KCl and CPF at 400 mM KCl.

The target of experiment [2] is T2, Ref2-TAPS (S. cerevisiae) (UniProt P42073).
T2 sequence: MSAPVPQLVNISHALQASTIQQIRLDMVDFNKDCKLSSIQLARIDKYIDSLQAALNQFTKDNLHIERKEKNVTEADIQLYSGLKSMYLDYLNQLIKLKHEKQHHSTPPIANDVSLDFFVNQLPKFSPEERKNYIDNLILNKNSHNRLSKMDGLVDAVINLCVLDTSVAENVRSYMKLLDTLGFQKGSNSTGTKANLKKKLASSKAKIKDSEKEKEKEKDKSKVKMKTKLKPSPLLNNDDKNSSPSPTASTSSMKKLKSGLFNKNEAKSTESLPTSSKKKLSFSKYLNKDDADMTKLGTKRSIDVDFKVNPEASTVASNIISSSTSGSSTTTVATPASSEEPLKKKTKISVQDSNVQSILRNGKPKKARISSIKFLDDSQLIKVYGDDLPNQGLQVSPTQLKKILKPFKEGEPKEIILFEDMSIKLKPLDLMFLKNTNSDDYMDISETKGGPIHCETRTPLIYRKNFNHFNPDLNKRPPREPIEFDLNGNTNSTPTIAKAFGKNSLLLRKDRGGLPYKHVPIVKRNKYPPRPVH
The description is as above.

For experiment [3], the target named is T1, Pta1-TAPS (S. cerevisiae). In words: SEC; TAPS affinity purification from tagged yeast strain, then Superose 6 PC 3.2/30 in 20 mM HEPES pH 7.9, 150 mM KCl, 3 mM DTT, 0.5 mM Mg(OAc)2, 0.5 mM MnCl2; fractions on Coomassie-stained SDS-PAGE. In general terms: In gel filtration, larger molecules generally elute earlier.
For experiment [4], the target named is T2, Ref2-TAPS (S. cerevisiae). Described as above.
The target in experiment [5] is T3, Syc1-TAPS (S. cerevisiae) (UniProt Q08553).
T3 sequence: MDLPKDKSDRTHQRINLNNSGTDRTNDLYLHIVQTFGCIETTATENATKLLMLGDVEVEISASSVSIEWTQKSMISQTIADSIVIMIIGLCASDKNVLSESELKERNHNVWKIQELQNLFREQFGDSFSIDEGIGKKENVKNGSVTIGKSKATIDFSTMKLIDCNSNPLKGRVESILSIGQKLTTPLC
The experiment is described as above.

Experiment [6] addresses T4, Mpe1-TAPS (S. cerevisiae) (UniProt P35728).
T4 sequence: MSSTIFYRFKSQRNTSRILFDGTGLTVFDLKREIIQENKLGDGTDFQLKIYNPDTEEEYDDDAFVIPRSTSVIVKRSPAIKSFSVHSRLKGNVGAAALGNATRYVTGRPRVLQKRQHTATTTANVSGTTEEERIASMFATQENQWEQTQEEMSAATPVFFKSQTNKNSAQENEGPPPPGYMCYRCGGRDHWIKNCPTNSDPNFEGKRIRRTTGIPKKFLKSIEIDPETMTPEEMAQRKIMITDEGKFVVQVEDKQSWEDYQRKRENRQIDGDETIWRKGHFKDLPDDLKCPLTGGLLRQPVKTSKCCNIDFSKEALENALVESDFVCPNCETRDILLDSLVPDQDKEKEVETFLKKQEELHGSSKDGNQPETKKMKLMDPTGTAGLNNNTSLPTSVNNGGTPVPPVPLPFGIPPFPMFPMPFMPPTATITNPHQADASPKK
The description is as above.

Experiment [7] deals with Pap1-TAPS (S. cerevisiae) (UniProt P29468). The description is as above.

B1: Cft1 (protein, UniProt Q06632 1-1357)
chain: MNVYDDVLDATVVSHSLATHFTTSDYEELLVVRTNILSVYRPTRDGKLYLTDEFKFHGLITDIGLIPQKDSPLSCLLLCTGVAKISILKFNTLTNSIDTLSLHYYEGKFKGKSLVELAKISTLRMDPGSSCALLFNNDIIAFLPFHVNKNDDDEEEEDEDENIDDSELIHSMNQKSQGTNTFNKRKRTKLGDKFTAPSVVLVASELYEGAKNIIDIQFLKNFTKPTIALLYQPKLVWAGNTTISKLPTQYVILTLNIQPAESATKIESTTIAFVKELPWDLHTIVPVSNGAIIVGTNELAFLDNTGVLQSTVLLNSFADKELQKTKIINNSSLEIMFREKNTTSIWIPSSKSKNGGSNNDETLLLMDLKSNIYYIQMEAEGRLLIKFDIFKLPIVNDLLKENSNPKCITRLNATNSNKNMDLFIGFGSGNALVLRLNNLKSTIETREAHNPSSGTNSLMDINDDDDEEMDDLYADEAPENGLTTNDSKGTVETVQPFDIELLSSLRNVGPITSLTVGKVSSIDDVVKGLPNPNKNEYSLVATSGNGSGSHLTVIQTSVQPEIELALKFISITQIWNLKIKGRDRYLITTDSTKSRSDIYESDNNFKLHKGGRLRRDATTVYISMFGEEKRIIQVTTNHLYLYDTHFRRLTTIKFDYEVIHVSVMDPYILVTVSRGDIKIFELEEKNKRKLLKVDLPEILNEMVITSGLILKSNMCNEFLIGLSKSQEEQLLFTFVTADNQIIFFTKDHNDRIFQLNGVDQLNESLYISTYQLGDEIVPDPSIKQVMINKLGHDNKEEYLTILTFGGEIYQYRKLPQRRSRFYRNVTRNDLAITGAPDNAYAKGVSSIERIMHYFPDYNGYSVIFVTGSVPYILIKEDDSTPKIFKFGNIPLVSVTPWSERSVMCVDDIKNARVYTLTTDNMYYGNKLPLKQIKISNVLDDYKTLQKLVYHERAQLFLVSYCKRVPYEALGEDGEKVIGYDENVPHAEGFQSGILLINPKSWKVIDKIDFPKNSVVNEMRSSMIQINSKTKRKREYIIAGVANATTEDTPPTGAFHIYDVIEVVPEPGKPDTNYKLKEIFQEEVSGTVSTVCEVSGRFMISQSQKVLVRDIQEDNSVIPVAFLDIPVFVTDSKSFGNLLIIGDAMQGFQFIGFDAEPYRMISLGRSMSKFQTMSLEFLVNGGDMYFAATDADRNVHVLKYAPDEPNSLSGQRLVHCSSFTLHSTNSCMMLLPRNEEFGSPQVPSFQNVGGQVDGSVFKIVPLSEEKYRRLYVIQQQIIDRELQLGGLNPRMERLANDFYQMGHSMRPMLDFNVIRRFCGLAIDRRKSIAQKAGRHAHFEAWRDIINIEFSMRSLCQGK
With B1, the binding entry in experiment [1] is listed as “binds”; in experiment [2] it was “binds”; in experiment [3] it was “binds”; in experiment [4] it was “binds”; in experiment [5] it was “no binding”; in experiment [6], “binds”. In experiment [7], the binding result is recorded as “binds”.

B2: Pti1 (protein, UniProt P39927 1-425)
chain: MTDPRRRTGRHFLTPENLSSTLQITNLPPEWNQDIITSVVAGSGPVIDIKAKNDPRTGKLTGVLFDYLTSKDCKRAWEILNRIENFPVKIEQIIPPNYKDHLRETANKNSQKQVLQLNRDSYPFEAGLELPFEMVTEVPIPRRPPPPQAANNTNSVSNNTNIQFPDILSKASKHLPSFQDGSIIAPDKISQNLSKIPPLQLIEIISNLKILSNQENIQKSQLESFLDTNSDITISVTQALLEMGFIDYSVVTKVLKSQVGEAPSLLSSNNTSNSNTPVSVIRNNTPLHVPSNEVSNNPNNMPLNVAMPMPMSTPPFIPLPLQQQPFGFAPPGPFMPPAQGPSMGQPVLANQLGQVQQQNISSTEGPSNANKANDSGTINMAKLQLLPENQQDMIKQVLTLTPAQIQSLPSDQQLMVENFRKEYII
Turning to B2, the binding entry in experiment [1], in experiment [2], in experiment [3], in experiment [4], in experiment [5] and in experiment [6] was “binds” each time. The binding entry in experiment [7] was “binds”.

B3: Swd2 (protein, UniProt P36104 1-329)
chain: MTTVSINKPNLLKFKHVKSFQPQEKDCGPVTSLNFDDNGQFLLTSSSNDTMQLYSATNCKFLDTIASKKYGCHSAIFTHAQNECIYSSTMKNFDIKYLNLETNQYLRYFSGHGALVNDLKMNPVNDTFLSSSYDESVRLWDLKISKPQVIIPSLVPNCIAYDPSGLVFALGNPENFEIGLYNLKKIQEGPFLIIKINDATFSQWNKLEFSNNGKYLLVGSSIGKHLIFDAFTGQQLFELIGTRAFPMREFLDSGSACFTPDGEFVLGTDYDGRIAIWNHSDSISNKVLRPQGFIPCVSHETCPRSIAFNPKYSMFVTADETVDFYVYDE
For B3, the binding entry in experiment [1], in experiment [2], in experiment [3], in experiment [4], in experiment [5] and in experiment [6] was “binds” throughout. Also, the binding result in experiment [7] was “binds”.

B4: Ref2 (protein, UniProt P42073 1-533)
chain: MSAPVPQLVNISHALQASTIQQIRLDMVDFNKDCKLSSIQLARIDKYIDSLQAALNQFTKDNLHIERKEKNVTEADIQLYSGLKSMYLDYLNQLIKLKHEKQHHSTPPIANDVSLDFFVNQLPKFSPEERKNYIDNLILNKNSHNRLSKMDGLVDAVINLCVLDTSVAENVRSYMKLLDTLGFQKGSNSTGTKANLKKKLASSKAKIKDSEKEKEKEKDKSKVKMKTKLKPSPLLNNDDKNSSPSPTASTSSMKKLKSGLFNKNEAKSTESLPTSSKKKLSFSKYLNKDDADMTKLGTKRSIDVDFKVNPEASTVASNIISSSTSGSSTTTVATPASSEEPLKKKTKISVQDSNVQSILRNGKPKKARISSIKFLDDSQLIKVYGDDLPNQGLQVSPTQLKKILKPFKEGEPKEIILFEDMSIKLKPLDLMFLKNTNSDDYMDISETKGGPIHCETRTPLIYRKNFNHFNPDLNKRPPREPIEFDLNGNTNSTPTIAKAFGKNSLLLRKDRGGLPYKHVPIVKRNKYPPRPVH
B4: the binding entry in experiment [1], in experiment [3], in experiment [5], in experiment [6] and in experiment [7] was “binds” throughout.
